Publication PMC4336329 (PLoS ONE, 2015)
Out of some 310,000 compounds screened, about 14,000 (4.5%) showed an effect of 50% or more. Effects have a minus sign here. The list shows a part of the results.

Biological target: human ether-à-go-go-related gene (hERG) potassium channel (human, UniProt Q12809)
Assay: primary screen, population patch clamp on CHO cells stably expressing hERG
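Note: peak tail current of the secondary pulse compared with the same well before compound.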

Chain of human ether-à-go-go-related gene (hERG) potassium channel (Q12809 whole entry, looked up): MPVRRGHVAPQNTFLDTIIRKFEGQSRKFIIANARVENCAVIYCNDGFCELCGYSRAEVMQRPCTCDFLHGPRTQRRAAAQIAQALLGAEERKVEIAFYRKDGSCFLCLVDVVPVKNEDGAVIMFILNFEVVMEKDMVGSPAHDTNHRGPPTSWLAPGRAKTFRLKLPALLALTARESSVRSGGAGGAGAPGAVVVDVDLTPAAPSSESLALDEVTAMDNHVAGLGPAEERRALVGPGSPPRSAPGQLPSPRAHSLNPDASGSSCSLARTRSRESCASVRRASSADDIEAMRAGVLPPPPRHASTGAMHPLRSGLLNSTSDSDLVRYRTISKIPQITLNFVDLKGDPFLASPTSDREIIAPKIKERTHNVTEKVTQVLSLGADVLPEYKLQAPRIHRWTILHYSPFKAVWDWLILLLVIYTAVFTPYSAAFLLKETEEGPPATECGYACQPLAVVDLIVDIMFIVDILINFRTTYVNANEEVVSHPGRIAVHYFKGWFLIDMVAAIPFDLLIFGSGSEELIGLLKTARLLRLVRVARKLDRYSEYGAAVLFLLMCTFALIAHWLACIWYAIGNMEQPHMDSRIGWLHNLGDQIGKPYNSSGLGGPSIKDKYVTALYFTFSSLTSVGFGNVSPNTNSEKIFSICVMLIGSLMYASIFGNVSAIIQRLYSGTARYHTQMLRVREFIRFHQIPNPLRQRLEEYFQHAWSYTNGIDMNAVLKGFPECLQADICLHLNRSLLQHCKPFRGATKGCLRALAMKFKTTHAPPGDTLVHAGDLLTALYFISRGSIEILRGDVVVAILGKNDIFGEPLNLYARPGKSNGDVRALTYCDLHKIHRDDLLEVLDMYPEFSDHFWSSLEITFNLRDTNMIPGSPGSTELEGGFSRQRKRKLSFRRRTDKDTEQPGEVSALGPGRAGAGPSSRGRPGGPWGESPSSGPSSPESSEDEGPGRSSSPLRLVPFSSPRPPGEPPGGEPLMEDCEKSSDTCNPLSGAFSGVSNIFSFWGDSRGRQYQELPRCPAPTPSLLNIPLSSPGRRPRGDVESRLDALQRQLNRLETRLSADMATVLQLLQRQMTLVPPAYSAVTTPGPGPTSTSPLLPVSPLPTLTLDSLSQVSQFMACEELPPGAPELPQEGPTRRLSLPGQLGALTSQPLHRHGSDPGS

First: CCCOc1ccc(S(=O)(=O)NNC(=O)c2cc3ccccc3o2)cc1
Second: CN(Cc1ccccc1Cl)C(=O)c1cc2ccccc2o1
The “hERG current change (%, negative = inhibition) at 10uM” value of the first is higher: 8.21% for the first, -2.37% for the second.

Compared with `CN(C)C(CNc1ncnc2sccc12)c1cccs1` (stereo not drawn), `CC(O)CNCCNCc1c(OCc2ccccc2)ccc2ccccc12.Cl` (stereo not drawn) is lower in “hERG current change (%, negative = inhibition) at 10uM” value: -2.15% for the first, -34.6% for the second.

First: O=C(CN1C(=O)NC2(CCCCCC2)C1=O)c1ccc(F)cc1
Second: Cc1ccc(S(=O)(=O)N2CC(=O)NC(=O)C2)cc1
The “hERG current change (%, negative = inhibition) at 10uM” value of the first is lower: -10.7% for the first, 6.07% for the second.

First: CCOc1cc(C)cc2oc(=O)cc(-c3ccccc3)c12
Second: O=C(Nc1c(F)cc(F)cc1Br)c1cc(-c2ccccc2)on1
The “hERG current change (%, negative = inhibition) at 10uM” value of the first is lower: 1.22% for the first, 18% for the second.

First: O=c1[nH][nH]cc1C=NCc1cccnc1
Second: Cc1ccccc1CC(=O)NCc1cccnc1
The “hERG current change (%, negative = inhibition) at 10uM” value of the first is higher: 12.7% for the first, 10.8% for the second.

Going from `COc1ccccc1NC(=O)CN1C(=O)CSC(C)C1=O` (stereo not drawn) to `COc1ccccc1C(=O)Nc1ccccc1SC`, the “hERG current change (%, negative = inhibition) at 10uM” value falls from 35.9% to -20.3%.

Going from `CCc1ccc(C(=O)N/N=C(\C)c2ccncc2)s1` to `CCNS(=O)(=O)c1ccc(CCC(=O)NCc2ccncc2)cc1`, the “hERG current change (%, negative = inhibition) at 10uM” value rises from -11.1% to 2.58%.

Going from `O=C(COc1ccc(/C=N/NS(=O)(=O)c2ccccc2)cc1)Nc1ccc(F)cc1` to `O=C(COc1ccc(F)cc1)Nc1ccc(-n2cnnn2)cc1`, the “hERG current change (%, negative = inhibition) at 10uM” value falls from -37.6% to -49.5%.

First: O=C(NC1CCCCC1)c1noc2c1CCCCC2
Second: CC(Oc1cc2oc(=O)c3c(c2cc1Cl)CCCC3)C(=O)NCC1CCC(C(=O)O)CC1 (stereo not drawn)
The “hERG current change (%, negative = inhibition) at 10uM” value of the first is lower: -12.2% for the first, 12.6% for the second.

Going from `c1ccc(CCc2nn3c(-c4ccncc4)nnc3s2)cc1` to `N/C(=N\OC(=O)CCCN1C(=O)c2ccccc2C1=O)c1ccccn1`, the “hERG current change (%, negative = inhibition) at 10uM” value rises from -53.9% to 5.36%.

Compared with `CN(C)S(=O)(=O)c1ccc(C(=O)Nc2ccc3ncccc3c2)cc1`, `COc1ccccc1C(CNC(=O)c1ccc(NS(=O)(=O)c2ccc3c(c2)OCCO3)cc1)N(C)C` (stereo not drawn) is lower in “hERG current change (%, negative = inhibition) at 10uM” value: 21.8% for the first, -25.7% for the second.

First: CCNC(=O)NC(=O)CSc1ccc(S(=O)(=O)N(C)C2CCCCC2)cn1
Second: CC(=O)N1CCc2cc(S(=O)(=O)CCC(=O)N3CCC(C)CC3)ccc21
The “hERG current change (%, negative = inhibition) at 10uM” value of the first is lower: -16.4% for the first, 15.5% for the second.

Going from `O=c1[nH]cc(COCC(F)(F)C(F)(F)C(F)(F)F)c(=O)[nH]1` to `CCOC(=O)NC1(C(F)(F)F)N=C(c2ccccc2)NC1=O` (stereo not drawn), the “hERG current change (%, negative = inhibition) at 10uM” value falls from 16.7% to 4.77%.

First: CCC(=O)N1CCN(c2ccc(Cl)cc2NC(=O)c2ccc3c(c2)OCCO3)CC1
Second: CC(=O)Nc1ccc(NC(=O)C2CCN(S(=O)(=O)c3ccc4c(c3)OCCO4)CC2)cc1
The “hERG current change (%, negative = inhibition) at 10uM” value of the first is lower: -37.2% for the first, 11.6% for the second.

Compared with `CCOC(=O)/C=C1\SCC(=O)N1CC(=O)Nc1ccc2c(c1)CCC2`, `Nc1cc(=O)[nH]c(SCC(=O)NC2CCCc3ccccc32)n1` (stereo not drawn) is lower in “hERG current change (%, negative = inhibition) at 10uM” value: 3.3% for the first, 0.0692% for the second.

First: O=c1[nH]c2ccc(Cl)cc2c(-c2ccccc2)c1N1CCOCC1
Second: Cn1nnnc1SCc1nc2scc(-c3ccccc3)c2c(=O)[nH]1
The “hERG current change (%, negative = inhibition) at 10uM” value of the first is higher: 2.46% for the first, -3.59% for the second.

Compared with `CN(c1ccccc1)S(=O)(=O)c1cccc(C(=O)NCc2ccccc2CN2CCCC2)c1`, `O=C(COc1ccccc1)Nc1ccc(S(=O)(=O)N2CCCC2)cc1` is higher in “hERG current change (%, negative = inhibition) at 10uM” value: -74.6% for the first, -11.8% for the second.

First: C/C=C(\C)c1nnc(NC(=O)c2ccco2)s1
Second: Cc1ccc(OC(=O)c2sc(Cl)nc2C)cc1C
The “hERG current change (%, negative = inhibition) at 10uM” value of the first is higher: 1.95% for the first, -13% for the second.

First: Cc1nc(SCC(=O)Nc2c(C)n(C)n(-c3ccccc3)c2=O)[nH]c(=O)c1Cc1ccccc1
Second: O=C(CSc1nc2[nH]ncc2c(=O)[nH]1)Nc1ccc(Cl)cc1
The “hERG current change (%, negative = inhibition) at 10uM” value of the first is higher: 6.03% for the first, 4.56% for the second.

First: Cn1cccc1/C=N/NC(=O)Cc1ccccc1
Second: O=C(Nc1cccc(C(F)(F)F)c1)C1(c2ccccc2)CC1
The “hERG current change (%, negative = inhibition) at 10uM” value of the first is higher: 18.5% for the first, -9.24% for the second.

Going from `Cc1ccc(C(=O)C2=C(O)C(=O)N(Cc3ccco3)C2c2cccc(Cl)c2)o1` (stereo not drawn) to `CC1CC(=O)C2=C(C1)Nc1nc3ccccc3n1C2c1cccnc1` (stereo not drawn), the “hERG current change (%, negative = inhibition) at 10uM” value rises from 0.92% to 4.17%.

Compared with `O=C(COC(=O)/C=C/c1ccc(OC(F)F)cc1)NC1CCCC1`, `COc1ccc(-c2ccc(-c3nc4ccc(C)cn4c3NC3CCCCC3)cc2OC)cc1.O=C(O)C(F)(F)F` is higher in “hERG current change (%, negative = inhibition) at 10uM” value: 0.985% for the first, 4.84% for the second.

Going from `COc1ccccc1CNC(=O)c1[nH]c(C)c(C(C)=O)c1C` to `COc1ccccc1CNC(=O)CCNS(=O)(=O)c1ccc2c(c1)CC(C)N2C(C)=O` (stereo not drawn), the “hERG current change (%, negative = inhibition) at 10uM” value rises from 10.2% to 17.5%.

Compared with `O=C1C=C(O)CC(c2ccc(Cl)c(Cl)c2)C1` (stereo not drawn), `CCOC(=O)/C(=N\Nc1ccccc1Cl)N1CC(C)OC(C)C1` (stereo not drawn) is higher in “hERG current change (%, negative = inhibition) at 10uM” value: -40.3% for the first, 13.5% for the second.

Going from `CCCc1nnc(SCC(=O)O)n1CC` to `CCOC(=O)C1=C(COC(=O)/C=C/c2ccc(OCC)c(OC)c2)NC(=O)NC1C` (stereo not drawn), the “hERG current change (%, negative = inhibition) at 10uM” value falls from -2.32% to -20.6%.

First: CN(C)CCCN(C(=O)c1ccc(S(=O)(=O)N2CCOCC2)cc1)c1nc2cc3c(cc2s1)OCO3.Cl
Second: CN(C)c1ccc(NC(=O)CCN2CCN(c3ccccn3)CC2)cc1
The “hERG current change (%, negative = inhibition) at 10uM” value of the first is lower: -61.4% for the first, -5.55% for the second.

First: Cc1cc(C(=O)NNC(=O)c2cccc(C(F)(F)F)c2)no1
Second: Cc1ccc(NS(=O)(=O)c2ccc(-n3cccn3)cc2)c(C)c1
The “hERG current change (%, negative = inhibition) at 10uM” value of the first is lower: 13.6% for the first, 22.8% for the second.

First: CN(C)c1ccc(/C=C(\NC(=O)c2ccccc2)C(=O)NCCCn2ccnc2)cc1
Second: N#Cc1cn(CC(=O)NCCc2c[nH]c3ccccc23)c2ccccc12
The “hERG current change (%, negative = inhibition) at 10uM” value of the first is lower: -9.78% for the first, 10.6% for the second.

`Cc1ccc(-c2nc(CN(C)C(C3CC3)C3CC3)c(C)o2)cc1` was tested, and the “hERG current change (%, negative = inhibition) at 10uM” value was -56.6%.
